SMILES strings stand for the structures. Screen size: about 310,000 compounds; about 14,000 (4.5%) showed an effect of 50% or more. Effects have a minus sign here. The list shows a part of the results.
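Also: peak tail current of the secondary pulse compared with the same well before compound.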

Chain of human ether-à-go-go-related gene (hERG) potassium channel (Q12809 whole entry, looked up): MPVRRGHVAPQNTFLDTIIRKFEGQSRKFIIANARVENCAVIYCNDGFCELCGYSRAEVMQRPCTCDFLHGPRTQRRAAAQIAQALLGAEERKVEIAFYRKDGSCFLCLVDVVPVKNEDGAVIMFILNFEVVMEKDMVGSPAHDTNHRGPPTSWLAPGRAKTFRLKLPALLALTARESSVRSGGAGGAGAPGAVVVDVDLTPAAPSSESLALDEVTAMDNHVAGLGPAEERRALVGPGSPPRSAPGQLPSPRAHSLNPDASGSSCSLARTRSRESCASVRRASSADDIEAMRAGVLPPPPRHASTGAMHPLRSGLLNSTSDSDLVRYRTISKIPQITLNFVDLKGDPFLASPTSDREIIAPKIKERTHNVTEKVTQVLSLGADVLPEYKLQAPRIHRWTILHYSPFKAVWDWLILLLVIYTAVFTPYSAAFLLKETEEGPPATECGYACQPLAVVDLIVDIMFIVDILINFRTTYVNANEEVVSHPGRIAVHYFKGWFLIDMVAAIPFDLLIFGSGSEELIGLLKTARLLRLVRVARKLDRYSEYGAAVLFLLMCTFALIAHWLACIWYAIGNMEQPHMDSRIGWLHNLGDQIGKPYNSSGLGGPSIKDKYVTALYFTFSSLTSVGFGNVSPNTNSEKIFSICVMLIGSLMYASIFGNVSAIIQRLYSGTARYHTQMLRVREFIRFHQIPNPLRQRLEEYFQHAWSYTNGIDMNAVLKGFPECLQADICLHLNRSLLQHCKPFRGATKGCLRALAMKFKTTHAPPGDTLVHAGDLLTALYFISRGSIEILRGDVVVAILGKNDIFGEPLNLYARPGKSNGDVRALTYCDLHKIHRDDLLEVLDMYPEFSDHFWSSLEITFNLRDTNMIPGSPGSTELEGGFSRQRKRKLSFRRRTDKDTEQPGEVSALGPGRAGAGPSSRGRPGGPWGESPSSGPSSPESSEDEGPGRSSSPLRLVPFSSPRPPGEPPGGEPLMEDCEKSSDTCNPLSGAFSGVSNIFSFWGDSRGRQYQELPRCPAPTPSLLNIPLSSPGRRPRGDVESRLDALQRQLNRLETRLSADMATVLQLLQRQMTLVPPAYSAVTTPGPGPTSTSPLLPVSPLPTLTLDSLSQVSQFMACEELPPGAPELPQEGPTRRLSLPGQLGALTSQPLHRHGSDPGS

This assay has as its target human ether-à-go-go-related gene (hERG) potassium channel (human, UniProt Q12809). The assay is described as follows: primary screen, population patch clamp on CHO cells stably expressing hERG.
Consider `CC(=O)Nc1ccc(S(=O)(=O)NCCC(=O)Nc2ccc(C)c(Cl)c2)cc1`, for which the “hERG current change (%, negative = inhibition) at 10uM” value is -3.17%.

Regarding `Cc1ccc2cc(-c3noc(C(C)(C)C)n3)c(=O)[nH]c2c1`, the “hERG current change (%, negative = inhibition) at 10uM” value is -17%. In the case of `O=C(CN1CCN(c2ccc(O)cc2)CC1)Nc1cc(S(=O)(=O)N2CCCCC2)ccc1Cl` it was -31.8%; in that of `O=S(=O)(NC1=NCCC1)c1ccc(F)cc1F`, 17.3%. The figure for `COCCNc1nnc(SCC(=O)N2CCN(S(=O)(=O)c3ccccc3)CC2)s1` is -2.94%; for `CC[N+]1(C)CCC(=C2c3ccccc3CC(=O)c3sccc32)CC1.[Br-]` (stereo not drawn) it is -0.0826%. For `Cc1cc(=O)[nH]c(N/N=C/c2c(C)oc3ccccc23)n1`, the “hERG current change (%, negative = inhibition) at 10uM” value is listed as -0.943%. The figure for `CCOc1ccc(NN=C(C(=O)OC)C(=O)OC)c([N+](=O)[O-])c1` is 11.2%.

For `CCOS(=O)(=O)[O-].CC[n+]1c(/C=C/Nc2ccccc2)oc2ccc(OC)cc21`, the “hERG current change (%, negative = inhibition) at 10uM” value is -77.2%. The figure for `CCn1c(SCC(=O)NC(=O)c2ccccc2OC)nc2ccccc21` is -70.8%; for `CCN(CC)CCOC(=O)c1ccc(Cl)cc1Cl.Cl` it is -55.4%; for `CC(OC(=O)C1=COCCO1)C(=O)Nc1cccc(S(=O)(=O)N2CCOCC2)c1` (stereo not drawn) it is 18%.

Regarding `O=C(c1cccc([N+](=O)[O-])c1)N1CCCC(C(=O)N2CCCCCC2)C1` (stereo not drawn), the “hERG current change (%, negative = inhibition) at 10uM” value is reported as -4.58%.

On to `C=CCOc1nc2c(c(=O)n(C)c(=O)n2C)n1Cc1ccc(Cl)cc1Cl`, for which the “hERG current change (%, negative = inhibition) at 10uM” value is reported as -2.7%. In the case of `CCc1cc2cc(C)c(C)cc2nc1SCC(=O)NNC(=O)c1ccco1` it was 21.5%. The figure for `c1ccc2c(c1)nc(N1CCOCC1)c1c3ccccc3[nH]c21` is 5.47%.

Regarding `C/C(=N\NC(=O)c1cc(O)ccc1O)c1cccc(NC(=O)c2cccc(Cl)c2)c1`, the “hERG current change (%, negative = inhibition) at 10uM” value worked out at 18.4%. In the case of `NC(=O)c1ccc(-n2nnnc2SCC(=O)Nc2ccccc2)cc1` it was 14.3%; in that of `CC(=O)C1=C(O)C(=O)N(c2ccc(O)cc2)C1c1ccccc1` (stereo not drawn), 5.28%; in that of `O=C(O)c1cc(C2CC2)nc2ccccc12`, 10.1%. As for `O=c1[nH]cccc1-c1nc2ccccc2n1Cc1ccc(Cl)cc1`, the “hERG current change (%, negative = inhibition) at 10uM” value is reported as -23.8%.

On to `Oc1ccccc1CNc1ncc(Br)cc1Br`, for which the “hERG current change (%, negative = inhibition) at 10uM” value was 8.67%. For the molecule `O=C(NC1CCCCC1)C1CCCN1S(=O)(=O)c1ccc(F)cc1` (stereo not drawn), the “hERG current change (%, negative = inhibition) at 10uM” value was -0.938%. In the case of `Cc1cc(C(=O)NC(C)c2ccccc2)c2cc(F)ccc2n1` (stereo not drawn) it was 3.06%; in that of `COc1ccc([C@@H]2CC=C(C(=O)O)[C@H](c3ccc(F)cc3)N2S(=O)(=O)c2ccccc2C)cc1`, 17.7%; in that of `COc1ccc2ccccc2c1/C=N/NC(=O)c1nnn(-c2nonc2N)c1CN(C)C`, -5.92%. In the case of `O=C(CSc1ncn[nH]1)Nc1cccc2ccccc12` it was 3.88%. The figure for `COc1cc(/C=N/NC(=O)c2nc(C)cc(C)n2)ccc1O` is 7.57%. Consider `CCOC(=O)c1[nH]c(C)c(CN(CCc2ccc(OC)c(OC)c2)C(=O)CCCC(=O)O)c1C`, for which the “hERG current change (%, negative = inhibition) at 10uM” value was found to be 4.19%. In the case of `Cc1cnn(-c2ccc3nnc(-c4ccc(Br)cc4)n3n2)c1` it was -3.17%; in that of `CCOC(=O)c1cc(-c2ccccc2)sc1NC(=O)CN1C(=O)NC(CC)(c2ccc(F)cc2)C1=O` (stereo not drawn), 8.98%; in that of `CN1CCN(C(=O)c2ccccc2-c2ccccc2C(=O)O)CC1`, 15.7%. The figure for `CN1C(=O)N(C)c2ccc(C=O)c3cccc1c23` is 27%. Turning to `COc1ccc(OC)c(S(=O)(=O)Nc2ccc(-c3ccc4nncn4n3)cc2)c1`, the “hERG current change (%, negative = inhibition) at 10uM” value is recorded as -45.5%. With `CCn1c(C)c(C)c2cc(C(=O)NC3CCCCCC3)ccc21`, the “hERG current change (%, negative = inhibition) at 10uM” value is -4.97%.

Take `Cc1ccc2c(Cl)cc(Cl)c(OCC(=O)Nc3cccc(S(N)(=O)=O)c3)c2n1`: the “hERG current change (%, negative = inhibition) at 10uM” value is recorded as 6.45%. For `O=C(Oc1ccc(/C=N/NC(=O)c2ccccc2O)cc1)c1ccccc1`, the “hERG current change (%, negative = inhibition) at 10uM” value is -9.76%. In the case of `Cc1cc(C(=O)COc2cccnc2[N+](=O)[O-])c(C)n1-c1ccccc1` it was -11.2%. The figure for `COc1cc(C(=O)NC(C)c2ccc3ccccc3c2)cc(Cl)c1O` (stereo not drawn) is 4.57%; for `CCCC(=O)Nc1ccc(Cl)c(NC(=S)NC(=O)C(C)C)c1` it is 14.5%; for `CC(On1nnc2ccccc21)C(=O)N1CCN(Cc2ccccc2)CC1` (stereo not drawn) it is 18.2%. Take `O=C(c1cc(COc2ccc(F)cc2Cl)on1)N(CCO)Cc1cccs1`: the “hERG current change (%, negative = inhibition) at 10uM” value is -31.6%.

Values taken from publication PMC4336329 (PLoS ONE, 2015).
